# Measurements reported in the supplement of paper PMC12217912.
# Some of the results follow. The full chains were built here from the parent and the listed change. Values near 0.05 are background.
# B1: TEV protease; numbered along this chain (parent)
# chain: MGESLFKGPRDYNPISSSICHLTNESDGHTTSLYGIGFGPFIITNKHLFRRNNGTLVVQSLHGVFKVKDTTTLQQHLVDGRDMIIIRMPKDFPPFPQKLKFREPQREERICLVTTNFQTKSMSSMVSDTSCTFPSGDGIFWKHWIQTKDGQCGSPLVSTRDGFIVGIHSASNFTNTNNYFTSVPKNFMELLTNQEAQQWVSGWRLNADSVLWGGHKVFMVKPEEPFQPVKEATQL
# Variants of: B1
# Assay: raw area under fraction-flipped curve 0-4 h after induction (AUC4h, not background-subtracted), DNA-recorder readout of cleavage of the substrate (dimensionless); higher = more cleavage of the substrate by the protease variant
# Conditions: temperature: 34 °C; time window: 0-4 h after rhamnose induction
# 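Note: Bxb1 expression induced with 0.2% (w/v) L-rhamnose at OD600 near 0.5, cultures sampled hourly, flipped fraction per protease–substrate barcode pair counted by paired-end Illumina sequencing.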
Variant,area with substrate ECLYFQS,area with substrate EDLYFQS,area with substrate EELYFQS,area with substrate EFLYFQS,area with substrate EGLYFQS,area with substrate EHLYFQS,area with substrate EILYFQS,area with substrate EKLYFQS,area with substrate EMLYFQS,area with substrate EPLYFQS,area with substrate EQLYFQS,area with substrate ESLYFQS,area with substrate EWLYFQS,area with substrate EYLYFQS,area with substrate EVLYFQS,area with substrate ELLYFQS,area with substrate ERLYFQS,area with substrate ETLYFQS
D128M,0.18,0.15,0.17,0.182,0.123,0.174,0.148,0.181,0.158,0.166,0.178,0.159,0.152,0.19,,,,
D128W,0.177,0.188,,,,0.217,0.157,0.22,,0.218,0.208,0.197,,,0.136,,,
D128Y,0.147,0.164,,0.112,,,0.128,0.156,0.135,,0.187,0.16,,0.192,0.103,0.112,0.144,
W144N,0.0769,,0.0831,0.0799,0.0782,,,0.07,,,0.092,0.0979,0.0707,,0.0826,0.0899,0.0875,0.0732
C152D,0.0611,,0.0621,,0.0553,0.0647,0.0351,0.059,0.0581,0.0455,0.0492,0.0617,0.0656,,,0.0414,,0.0633
C152E,0.0671,,0.0583,0.0521,,,0.0585,0.0576,0.0614,0.0645,,0.0668,0.0607,0.0495,0.0851,0.0582,0.0692,
C152F,0.055,0.087,0.0567,0.0631,,0.0633,0.0695,0.0492,0.0513,,0.0504,0.062,0.0588,0.0388,0.0706,0.057,0.0696,0.0487
C152I,0.0532,0.062,0.0649,0.0766,0.0541,0.0472,0.0481,0.0527,0.0795,0.0484,0.0836,0.0609,0.0559,0.0485,0.041,0.0465,0.0516,
C152M,0.06,,,,,,0.0632,,,,,,0.075,,,,,0.061
C152W,0.0575,,0.0996,,,0.0543,0.0654,0.0688,0.0631,0.0484,0.0673,0.0547,,0.0554,0.0639,0.0431,0.0608,0.0535
R160K,0.0967,,,,0.0973,0.0937,0.0872,,,0.13,0.0564,0.125,,,0.0919,0.089,,
R160Y,0.106,,,0.0949,0.0848,,0.102,0.06,0.109,0.106,0.0907,0.109,,,0.0737,0.117,,
H168A,0.0488,0.0565,,0.0758,,,,0.0607,,,,,,0.0697,0.0756,,,0.0506
H168F,0.0579,,,0.0522,,0.0522,0.0429,,,0.066,0.0541,0.0657,0.0623,0.0469,0.0627,,0.0464,0.0584
H168K,0.0371,0.0655,,,,0.0649,0.0617,0.114,,,0.0682,0.0494,0.0517,0.0527,0.0619,0.0604,,
H168M,0.058,0.0621,0.0596,0.0733,0.067,,0.0552,0.0676,0.0577,,0.0505,0.0578,,,0.0493,0.0499,0.0609,
H168N,0.0559,0.0616,,,,,0.0658,0.0718,0.0572,0.0935,,0.0519,0.0627,,,,0.0672,
T176M,0.0738,0.0873,0.0752,,,,0.0664,0.0699,0.0741,,0.0704,0.0813,0.088,0.087,,0.0587,0.0793,0.0849
T176S,0.0893,0.112,0.0969,0.116,0.0577,,0.0866,0.0836,0.0965,,0.0705,0.0798,0.0904,0.095,0.0691,0.0732,,0.0982
P184I,0.0736,0.0922,0.0767,,0.0752,,0.0662,0.0731,0.0767,0.0815,0.073,0.0623,,,0.0699,,0.0846,
P184V,0.093,0.095,0.0895,0.0682,,,0.069,0.089,0.0697,,0.0819,0.0718,0.0731,0.0799,,0.0609,0.0761,0.143
P184W,0.0675,0.0547,0.0573,,0.0435,,0.0771,0.0679,0.0679,0.0588,0.0726,0.0598,0.0606,,0.0755,0.0631,,

Variant,area with substrate ECLYFQS,area with substrate EDLYFQS,area with substrate EELYFQS,area with substrate EFLYFQS,area with substrate EGLYFQS,area with substrate EHLYFQS,area with substrate EILYFQS,area with substrate EKLYFQS,area with substrate EMLYFQS,area with substrate EPLYFQS,area with substrate EQLYFQS,area with substrate ESLYFQS,area with substrate EWLYFQS,area with substrate EYLYFQS,area with substrate EVLYFQS,area with substrate ELLYFQS,area with substrate ERLYFQS,area with substrate ETLYFQS
T192G,0.105,,0.117,,,,0.0982,,,0.104,0.0463,0.0965,,0.0978,0.0904,,0.0706,
T192H,0.0958,0.134,,,0.0812,0.0971,,0.0987,,,0.121,0.117,,0.09,,,0.113,
V200A,0.0542,0.046,,,0.0637,,0.058,,,,,0.0733,,0.0536,0.0767,,0.0681,
V200I,0.113,,0.149,0.106,,,,0.142,,,0.147,0.104,,,,,,
V200L,0.0716,,0.0829,,0.136,,,,,0.0761,,,0.0729,,0.0273,,,0.103
V200S,0.0759,,,,,,,,,,,0.0985,,,,,,
V200T,0.0886,,0.105,,,0.0922,,,,,,0.1,,0.0869,0.0975,0.0871,0.0942,0.11
D208E,0.0976,0.12,,0.0879,0.0858,,0.0859,0.116,0.147,,0.115,0.0885,,,,0.0879,0.119,0.0942
D208S,0.0754,,,,,0.106,,,,,,,0.0745,,,0.0539,,0.11
K216I,0.091,,,0.0744,,,,,,,0.0921,,0.0782,0.1,0.054,,0.135,
E224S,0.103,0.116,,0.103,,0.0931,0.0691,0.0995,0.0926,,,0.0937,,,0.119,,0.0894,0.158
E224V,0.0823,0.118,,,,0.0791,0.0897,,,0.115,,0.105,0.0679,,,0.0617,0.0992,0.134
A232G,0.123,0.137,0.139,,0.0757,,,0.101,,,0.188,0.174,0.113,0.0641,,,0.13,
A232H,0.111,0.117,0.123,,,,0.102,,,,0.153,0.0969,,,0.128,,0.132,0.155
A232W,0.145,,,,,,0.119,,0.112,,0.108,0.102,0.0857,,0.0689,,0.0961,
S16N,,0.134,0.132,,0.0822,0.106,0.128,0.0965,,0.111,,0.113,0.0867,0.108,0.0804,,0.103,
L48M,,0.142,,,0.0815,,0.106,0.0928,0.0671,,0.0814,0.114,,0.115,0.0832,,0.127,
L56C,,0.0818,0.128,0.0756,0.0727,0.0894,0.0991,0.104,,0.0841,0.101,0.0881,,,0.0791,,,0.114
L56Q,,0.0432,0.0587,,,,0.0433,0.0184,0.0208,,0.045,0.0391,,0.0593,0.05,0.0322,0.101,
T72N,,0.118,0.103,,0.121,0.0885,0.0867,0.0902,0.0951,,,0.0885,0.0997,0.079,,0.094,0.0902,0.124
T72R,,0.139,,0.108,,,0.12,0.111,0.113,0.0675,0.0976,0.091,0.131,0.134,0.0863,,0.14,
M88Y,,0.0582,0.0753,,,0.0548,0.064,,0.068,0.0686,,0.0645,,0.0614,,,,

Variant,area with substrate ECLYFQS,area with substrate EDLYFQS,area with substrate EELYFQS,area with substrate EFLYFQS,area with substrate EGLYFQS,area with substrate EHLYFQS,area with substrate EILYFQS,area with substrate EKLYFQS,area with substrate EMLYFQS,area with substrate EPLYFQS,area with substrate EQLYFQS,area with substrate ESLYFQS,area with substrate EWLYFQS,area with substrate EYLYFQS,area with substrate EVLYFQS,area with substrate ELLYFQS,area with substrate ERLYFQS,area with substrate ETLYFQS
L112Q,,0.091,0.101,,0.0967,0.0909,0.0694,0.0794,,,0.0915,0.0632,0.0936,,0.0759,,0.0837,0.0802
D128K,,0.104,,,,,,0.149,,,0.108,0.103,,,,0.0805,,
D128L,,0.154,,,0.119,,0.102,0.173,,,0.178,0.143,0.177,0.119,0.112,0.122,0.12,0.146
G136N,,0.121,,,,0.116,0.0797,,0.117,0.115,,0.118,0.101,0.114,0.0907,0.106,0.116,0.133
H168L,,0.0618,0.0707,,0.0564,,,0.0651,0.065,0.0492,0.0586,0.0583,0.0634,0.0516,0.0524,,,0.0783
T176R,,0.106,0.0807,0.09,0.0071,,0.0716,0.071,,,0.0572,0.0787,,0.0743,0.0606,,,
T192V,,0.0928,0.0734,,,,0.128,0.0233,0.115,,0.108,0.0915,0.102,,0.0882,,,
K216R,,0.121,,,,,,,,,,,,,,,,
A232V,,0.151,,,,,,,,,,0.117,0.0991,,0.0815,,0.115,
V64R,,,0.151,,,,,0.113,,,0.129,0.101,,0.129,0.108,,,
V64W,,,0.132,0.103,,0.115,0.103,,,,0.0988,0.119,,,,0.117,0.114,0.131
T176N,,,0.091,,,,0.0683,0.0841,0.0896,0.0689,0.0785,0.0746,,,0.0662,0.0618,0.0664,0.073
V200P,,,0.0725,0.0661,0.0728,,0.0255,,,,,0.0706,0.0681,,0.0646,0.0638,,
D208N,,,0.117,,0.0803,0.074,0.0747,0.0512,0.0563,0.0827,,0.0983,0.0889,,,,0.0841,
A232N,,,0.171,,0.0892,,0.112,0.117,0.103,,0.107,0.111,0.0831,,,,0.131,
L112H,,,,,0.065,,0.0576,0.0722,0.0641,0.0878,0.0689,0.0752,0.0688,0.0734,0.0629,0.0855,,0.0731
T176V,,,,,0.0813,,,,0.0742,,,,,,,,,
V200W,,,,,,0.0614,,,0.0784,,0.0649,,0.0658,,0.0522,,,
V64Q,,,,,,,0.101,,,,,0.0542,0.136,,0.0749,,0.111,0.111
K216D,,,,,,,,0.106,,,0.0943,0.08,,,,,,
T192W,,,,,,,,,,,,,,,,,,0.0794
